This is one part of the list.
T1: UNK ZnF1-6 (called full-length) (human, UniProt Q9C0B0 30-357)
T1 sequence: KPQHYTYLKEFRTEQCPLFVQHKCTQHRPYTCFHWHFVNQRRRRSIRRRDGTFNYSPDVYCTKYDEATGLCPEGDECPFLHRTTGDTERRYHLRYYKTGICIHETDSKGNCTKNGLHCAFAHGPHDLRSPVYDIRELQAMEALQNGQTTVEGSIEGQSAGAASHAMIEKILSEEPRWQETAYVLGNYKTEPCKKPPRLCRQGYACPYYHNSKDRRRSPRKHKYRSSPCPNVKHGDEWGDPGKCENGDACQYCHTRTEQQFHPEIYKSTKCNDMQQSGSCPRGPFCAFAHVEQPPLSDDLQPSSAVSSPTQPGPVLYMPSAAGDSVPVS

B1: ENSG00000198589:be:win_9501|3pUTR|ENSG00000198589|bound_else_gene|NA|bound_elsewhere_windowed (ssRNA)
RNA: GGGAGUUCUACAGUCCGACGAUCCGAAACAAUGUUAUUUGGUGGUGUAUAAUUCUACUUUUCUAGUAGAUUACUGUGUGGAAUUCUGUGAAAAAUAUUUGAGAAAAGGCCUGUAUUGCAUAAAUAAAUUCUUUGUAUGUUGUGCAACAGAGGAUUGAGCAUCA
B2: chr1:10469171:10469279:-|CDS|ENSG00000160049|unk|FALSE|unique (ssRNA)
RNA: GGGAGUUCUACAGUCCGACGAUCGUGGAUGAUGACGAUUACUUUCUGUGUCUACCUUCCAAUACUAAGUUUGUGGCAUUGGCUAGUAAUGAGAAAUGGGCAUACAACAAUUCAGGUAAGAAACUCUAGCCAUGUAUAAAACGGCAACAGAGGAUUGAGCAUCA
B3: chr11:72192224:72192325:+|CDS|ENSG00000110195|unk|total|mutant (ssRNA)
RNA: GGGAGUUCUACAGUCCGACGAUCAGACAUGGCUCAGCGGAUGACAACACAGCUGCUGCUCCUUCCCGUGUGGGUGGCUGCCGCCGGGGAGGCUCAGACAAGGAUUGCAUGGGCCAGGACUGAGCUUCUCAAUGUCUGCAUGAACAACAGAGGAUUGAGCAUCA
B4: chr6:17764380:17764481:-|CDS|ENSG00000137177|msi1|total|mutant (ssRNA)
RNA: GGGAGUUCUACAGUCCGACGAUCCCAGAGCAUCCCUGAGAAAAACUCCAAAUCACUGUGCAGGACUGGCUCAUGUUCAGAACCCGAUGCCUGCCCCAGCAAAAUCCGCCAGCCAGCCAGGGGAUUCUGCCCCAGGGAGGUGACCAACAGAGGAUUGAGCAUCA
B5: chr8:67434037:67434240:-|three_prime_utr|ENSG00000165078|control|control|control (ssRNA)
RNA: GGGAGUUCUACAGUCCGACGAUCCCCUUGUGAUGACACAUACUGUGGCCCUUUUCCAGAAUCUGAGCCGGAAGUGAAGGCUGUAGCUAACUUCCUUCGAAAACACAGAAAGCACAUUAGGGCUUAUCUCUCCUUUCAUGCAUACAACAGAGGAUUGAGCAUCA
B6: chr19:12317476:12318593:-|three_prime_utr|ENSG00000188868|control|control|control (ssRNA)
RNA: GGGAGUUCUACAGUCCGACGAUCCACCAUUGUCAACAUAAAACAACUCACAGAGCAGAAAAACUCUGUGAGUGUAAAAUAUGUAGGGAAGCCUUCAGUCAUUUUGGUAACUUAAAAGUACAUGAGGCUGGGCACAGUGGCUCACAACAGAGGAUUGAGCAUCA
B7: chr11:214995:215097:+|3pUTR|ENSG00000177963|unk|FALSE|unique (ssRNA)
RNA: GGGAGUUCUACAGUCCGACGAUCCCUCCUUCCUACUGGUUUAGACUACACUUACAACAAGGAAAAUGCCCCUCGUGUGACCAUAGAUUGAGAUUUAUACCACAUACCACACAUAGCCACAGAAACAUCAUCUUGAAAUAAAGACAACAGAGGAUUGAGCAUCA
B8: chr11:119314942:119315043:-|CDS|ENSG00000076706|msi1|FALSE|unique (ssRNA)
RNA: GGGAGUUCUACAGUCCGACGAUCGGGAGACUCUGCCCCUCUUGUAGCCCAGGACCCUUCUCCUCCUCUGUGUCUCCUCCCAUUAGGUCCACAAGGAGAAGCGGACGCUCAUCUUCCGUGUGCGCCAGGGCCAGGGCCAGAGCGCAACAGAGGAUUGAGCAUCA
B9: chr7:30013596:30013706:-|3pUTR|ENSG00000106080|msi1|total|mutant (ssRNA)
RNA: GGGAGUUCUACAGUCCGACGAUCUUAUAUUCAAUAUUUACUUCUUAAGGCCCGCGGAAUAUCCUUCCUGGUUCUUUAAUGGGCCGUCUACCGUAUAUUAUACUACAAUAACAUUGUAUCAUAAGAUAAAGCCGUAAACCAGUCCAACAGAGGAUUGAGCAUCA
B10: chr13:73693106:73693207:-|3pUTR|ENSG00000118922|msi1|FALSE|unique (ssRNA)
RNA: GGGAGUUCUACAGUCCGACGAUCCAGAGAACACAGAGAGGGACAAACACAGCCAUGAACCCCCUGGCACUAGUACCAGCACCUAGUUGGCAAGUAGUGGGUGCAUCUCUCAAGUGAAGUGUAGAUUUGUAUUUAGUCCUGCUUCAACAGAGGAUUGAGCAUCA
B11: chr11:86278520:86278536:+|CDS_3pUTR|ENSG00000074266|msi1_unk|total|mutant (ssRNA)
RNA: GGGAGUUCUACAGUCCGACGAUCUGAUGCCAGUAUUUGGCGCUGGGAUCGACUUCGAUAAAAUACUUUUGCCUAAUCAAAAUCCGAGUGUGUUUGUUGUCUGUGUAAAACCGAAUUAAUGUAUCUUGCCCGUAAGGGCACGUACAACAGAGGAUUGAGCAUCA
B12: chr1:2308404:2308505:+|3pUTR|ENSG00000157933|unk|total|mutant (ssRNA)
RNA: GGGAGUUCUACAGUCCGACGAUCUUCUUUGCUUUUGUUUUCUUUGCGGUUGUUCUGUGUGCAUGGAUUCCACACCUCUGCCGCCGGCCGAUCCGUCAGCGGGCAUUAUUACCGUGUCUUGUAAAGGGUCGGUUUUGUUAUGCACAACAGAGGAUUGAGCAUCA
B13: chr20:58459100:58460789:-|three_prime_utr|ENSG00000198768|control|control|control (ssRNA)
RNA: GGGAGUUCUACAGUCCGACGAUCACAUCAGGAUGGCGGCUCUGGACACCCAUUCAACCCUUCAGACUCCCUCCUGGCAGCUGUAGGGAAGGAACCAUUCUCCUCUGCUCUGUCAUGGAUGGAUGCACAGCCCCACUGCUUCCACAACAGAGGAUUGAGCAUCA
B14: chr4:137519872:137519973:-|3pUTR|ENSG00000189184|unk|total|mutant (ssRNA)
RNA: GGGAGUUCUACAGUCCGACGAUCAACUAUUCAUUUUCCGCUUUUGUCUCCAGUGCAUGAUCUCAUAUUUUUGCUUUUAUUUUCCGUAUAAGAACAUUUAUAAAAUCAUAUUUUUGUUACUGCAAUUGUUUUAUUUGUUGUGUGCAACAGAGGAUUGAGCAUCA
B15: chr5:96781692:96781854:-|CDS|ENSG00000164307|control|control|control (ssRNA)
RNA: GGGAGUUCUACAGUCCGACGAUCGUGACCUUGGCAGUGUUUGCUGUGGGGGCCCAGAGCACAGAAGGCUGGGAUUUUCUUUAUAGUAAAUAUCAGUUUUCUUUGUCCAGUACUGAGAAAAGCCAAAUUGAAUUUGCCCUCUGCCAACAGAGGAUUGAGCAUCA
B16: chr2:32414998:32415099:+|CDS|ENSG00000115760|unk|FALSE|unique (ssRNA)
RNA: GGGAGUUCUACAGUCCGACGAUCCCAUGUUUAUUAGCUGGAGGUUUAUUAACAUAUAAAUCUCCUGCUACCUCACCCAUUAGUAGUAAUUCUCACAGGUCACUGGAUGGUUUAAGCAGAACUCAGGGUGAAAGUAUAUCAGAACAACAGAGGAUUGAGCAUCA
B17: chr14:50159683:50159784:-|CDS|ENSG00000100485|unk|total|mutant (ssRNA)
RNA: GGGAGUUCUACAGUCCGACGAUCGAGGAAAAUACAAAUUUGUGAUAAAGAAGAUACUUGUGAGCACAAGCAUGCAUUUGAAUCCGUAUCCAAAGAUGAGAACAGCAUAAUAUUUGCUGCUAAGUCUGCUGAAGAAAAAAACAACAACAGAGGAUUGAGCAUCA
B18: chr5:179730620:179730726:+|3pUTR|ENSG00000127022|msi1_unk|FALSE|overlapping (ssRNA)
RNA: GGGAGUUCUACAGUCCGACGAUCGAGCUUUAAAUCAUUAGAGCUUAAAUUGUCAGAUCGUUCAUUGCCUUUCCAGGGUUAUUUAGUAAAGUUUGUUGAAAACAAAAACGCCUUUUCUUGGUUCUUUUUUCAGUUAUUUUGAAGCAACAGAGGAUUGAGCAUCA
B19: ENSG00000197006:stop:overlap|stop_codon|ENSG00000197006|stop_codon|NA|stop_codon (ssRNA)
RNA: GGGAGUUCUACAGUCCGACGAUCUUGCCCUUGUCCUCCCCUUUCAUCCCUAUGUGGAAAACGGUAAGUGUGGUCAGUCAGGCUAGCUCUUACUGAGGAUAGCUGUUUAUUGGUAUUUGUGAUUUUGUGCUGUGUACAAUUAAACAACAGAGGAUUGAGCAUCA
B20: chr7:74195289:74195308:+|CDS_3pUTR|ENSG00000106682|msi1_unk|total|mutant (ssRNA)
RNA: GGGAGUUCUACAGUCCGACGAUCGCGACGCCCCUCAAUCAAGCCGCCAAUCCCAACUCUGCUAUCUUCGGGGGUGCCAGGCCCCGAGAGGAAGUCGUUCAAAAGGAGCAAGAAUGAGCCUGCGGUUGGGAGGGAAUGGGGCGUCAACAGAGGAUUGAGCAUCA
B21: ENSG00000136010:stop:overlap|stop_codon|ENSG00000136010|stop_codon|NA|stop_codon (ssRNA)
RNA: GGGAGUUCUACAGUCCGACGAUCACUUAGGUGAGGAAGCUCUAAAUGAAUAUCUCAAAACCAAGACGGUGACACUGGAAUAUUAGAGCAACACCAUCAUCAGGAAAGCCUUGACAGACAGCCCUUUACAACUCUGGACACACUCAACAGAGGAUUGAGCAUCA
B22: chr9:91409354:91409467:-|CDS|ENSG00000165030|unk|FALSE|unique (ssRNA)
RNA: GGGAGUUCUACAGUCCGACGAUCAAUGAAAGACAGUGGCUACAAAGUUUCUGACCCAGAGAACUUGUAUUUGAAGCAGGGGAUAGCAAACUUAUCUGCAGAGGUUGUCUCACUCAAGAGACUUAUAGCCACACAACCAAUCUCCAACAGAGGAUUGAGCAUCA

molecular target: T1, UNK ZnF1-6 (called full-length); experiment: nsRBNS (natural sequence RNA bind-n-seq); RBNS binding buffer (assumed for nsRBNS): 25 mM Tris pH 7.5, 150 mM KCl, 3 mM MgCl2, 0.01% Triton X-100, 500 ug/ml BSA, 20 U/ml SUPERase-In, 4 C; UNK is unkempt and MSI1 is Musashi-1; names of the RNAs are library labels; protein concentration not given here; high values mean tight binding

Binder	binding signal
B1	0.511 enrichment R
B2	0.437 enrichment R
B3	0.739 enrichment R
B4	0.736 enrichment R
B5	0.751 enrichment R
B6	0.481 enrichment R
B7	1.35 enrichment R
B8	1.02 enrichment R
B9	0.716 enrichment R
B10	1.63 enrichment R
B11	0.242 enrichment R
B12	0.543 enrichment R
B13	0.592 enrichment R
B14	0.904 enrichment R
B15	0.885 enrichment R
B16	0.56 enrichment R
B17	0.305 enrichment R
B18	0.715 enrichment R
B19	0.997 enrichment R
B20	0.648 enrichment R
B21	0.469 enrichment R
B22	0.819 enrichment R
